Among the data in PMC5700166 are binding signal values, retold here.

This is a selection; strong and weak results do not stand in their true shares. The list includes weakly bound sequences.

Common to all, as to test: protein-binding microarray (PBM)
Holding throughout (settings): PBM: ~300 nM protein, 6 mM HEPES pH 7.8, 80 mM KCl, 0.5 mM EDTA, 0.5 mM EGTA, 6% glycerol, 35 ng/ul poly-dIdC, 1% milk, 1 h, room temperature; Ap Aiptasia and Nv Nematostella (sea anemones) / Co Capsaspora / Aq Amphimedon (sponge) / Dm Drosophila / Hu human; RHD is the Rel homology domain; high values mean tight binding; most listed sequences are background and not binding sites; double strand, one strand shown

For one test, the target named is T1, GST-Ap-NF-kB RHD (UniProt A0A913YAJ5).
T1 sequence: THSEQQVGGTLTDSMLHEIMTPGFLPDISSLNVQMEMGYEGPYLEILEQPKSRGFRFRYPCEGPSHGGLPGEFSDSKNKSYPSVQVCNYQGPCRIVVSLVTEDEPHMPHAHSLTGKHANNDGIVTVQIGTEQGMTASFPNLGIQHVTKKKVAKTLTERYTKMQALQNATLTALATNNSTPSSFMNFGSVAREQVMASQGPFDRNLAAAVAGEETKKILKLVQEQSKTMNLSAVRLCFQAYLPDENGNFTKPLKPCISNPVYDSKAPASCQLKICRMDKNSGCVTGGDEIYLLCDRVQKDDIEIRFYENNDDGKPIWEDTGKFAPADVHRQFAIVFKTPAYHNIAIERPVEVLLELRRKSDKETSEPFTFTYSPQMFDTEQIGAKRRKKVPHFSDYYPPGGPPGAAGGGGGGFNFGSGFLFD

For test [1], the target named is T2, GST-Nv-NF-kB (Cys allele) (UniProt E5G601).
T2 sequence: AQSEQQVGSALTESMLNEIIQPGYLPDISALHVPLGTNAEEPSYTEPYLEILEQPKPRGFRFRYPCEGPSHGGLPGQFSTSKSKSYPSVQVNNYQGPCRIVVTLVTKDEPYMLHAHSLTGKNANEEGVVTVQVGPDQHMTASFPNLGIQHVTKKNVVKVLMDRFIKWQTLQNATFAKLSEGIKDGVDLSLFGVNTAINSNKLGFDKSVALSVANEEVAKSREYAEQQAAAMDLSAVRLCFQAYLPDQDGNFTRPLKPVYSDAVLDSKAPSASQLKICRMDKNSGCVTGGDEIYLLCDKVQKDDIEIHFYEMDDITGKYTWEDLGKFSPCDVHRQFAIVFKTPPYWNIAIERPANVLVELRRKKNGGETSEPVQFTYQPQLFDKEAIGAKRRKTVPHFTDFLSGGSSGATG

For the next test, the target named is T3, GST-Co-NF-kB (UniProt F1ARL5).
T3 sequence: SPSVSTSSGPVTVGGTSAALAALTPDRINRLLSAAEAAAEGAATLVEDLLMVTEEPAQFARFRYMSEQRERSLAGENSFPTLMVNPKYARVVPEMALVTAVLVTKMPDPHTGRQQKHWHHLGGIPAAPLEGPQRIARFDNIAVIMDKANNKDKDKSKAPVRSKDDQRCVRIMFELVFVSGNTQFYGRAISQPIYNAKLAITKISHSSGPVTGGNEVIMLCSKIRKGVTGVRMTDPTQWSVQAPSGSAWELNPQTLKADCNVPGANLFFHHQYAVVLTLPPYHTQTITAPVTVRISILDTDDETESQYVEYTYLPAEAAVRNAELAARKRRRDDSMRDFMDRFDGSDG

The target of a further test is T4, GST-Dm-Relish (UniProt Q94527).
T4 sequence: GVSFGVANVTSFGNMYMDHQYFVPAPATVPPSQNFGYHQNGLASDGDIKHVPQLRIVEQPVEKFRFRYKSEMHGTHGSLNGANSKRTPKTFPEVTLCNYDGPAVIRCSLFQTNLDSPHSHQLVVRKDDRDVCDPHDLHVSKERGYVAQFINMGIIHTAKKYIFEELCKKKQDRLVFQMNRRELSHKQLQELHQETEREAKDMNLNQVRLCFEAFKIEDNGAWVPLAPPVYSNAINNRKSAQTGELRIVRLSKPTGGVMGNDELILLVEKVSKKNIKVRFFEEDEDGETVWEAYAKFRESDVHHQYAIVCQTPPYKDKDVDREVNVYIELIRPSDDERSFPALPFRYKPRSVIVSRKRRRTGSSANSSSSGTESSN

Another test deals with T5, GST-Aq-NF-kB (UniProt A9Y5G7).
T5 sequence: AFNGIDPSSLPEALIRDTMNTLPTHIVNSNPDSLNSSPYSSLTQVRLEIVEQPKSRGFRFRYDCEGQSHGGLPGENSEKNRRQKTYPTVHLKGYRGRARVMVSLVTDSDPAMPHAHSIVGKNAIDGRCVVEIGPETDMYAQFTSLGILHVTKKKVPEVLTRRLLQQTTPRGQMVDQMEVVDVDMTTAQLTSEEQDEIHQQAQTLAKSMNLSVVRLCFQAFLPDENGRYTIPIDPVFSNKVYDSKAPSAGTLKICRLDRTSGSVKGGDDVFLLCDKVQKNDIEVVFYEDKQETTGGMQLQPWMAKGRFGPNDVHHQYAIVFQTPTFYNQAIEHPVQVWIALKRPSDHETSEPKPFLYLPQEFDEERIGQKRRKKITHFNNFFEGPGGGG

Take “CCGATTAACATCAGACACTTTTCTGATGTTAATCGGGTCTTGATTCGCTTGACGCTGCTG”: the binding signal with GST-Ap-NF-kB RHD was -0.434 z-score; in test [1] it was -0.0483 z-score; in the test with GST-Co-NF-kB, -0.0552 z-score; with GST-Dm-Relish, 0.174 z-score; in the test with GST-Aq-NF-kB, -0.168 z-score.
Consider “CCGATTAACATCAGGGCCAAAAATGATGTTAATCGGGTCTTGATTCGCTTGACGCTGCTG”, for which the binding signal in the test with GST-Ap-NF-kB RHD is -0.273 z-score; in test [1], 0.256 z-score; with GST-Co-NF-kB, -0.326 z-score; with GST-Dm-Relish it was 0.083 z-score; in the test with GST-Aq-NF-kB, 0.197 z-score.
Consider “CCGATTAACATCATTACTAGACGTGATGTTAATCGGGTCTTGATTCGCTTGACGCTGCTG”, for which the binding signal was -0.215 z-score with GST-Ap-NF-kB RHD; -0.00344 z-score in test [1]; -0.563 z-score in the test with GST-Co-NF-kB; 0.219 z-score with GST-Dm-Relish; -0.373 z-score with GST-Aq-NF-kB.
Turning to “CCGATTAACATCACATGCTGCTGTGATGTTAATCGGGTCTTGATTCGCTTGACGCTGCTG”, the binding signal is -0.659 z-score in the test with GST-Ap-NF-kB RHD; 0.208 z-score in test [1]; -0.854 z-score with GST-Co-NF-kB; -0.101 z-score with GST-Dm-Relish; -0.718 z-score in the test with GST-Aq-NF-kB.
With “CCGATTAACATCACAAAAAATCCTGATGTTAATCGGGTCTTGATTCGCTTGACGCTGCTG”, the binding signal with GST-Ap-NF-kB RHD was found to be 0.198 z-score; in test [1], 0.394 z-score; with GST-Co-NF-kB, 0.414 z-score; in the test with GST-Dm-Relish it was 1.98 z-score; in the test with GST-Aq-NF-kB, 1.44 z-score.
For the sequence “CCGATTAACATCAATTGCTTTCTTGATGTTAATCGGGTCTTGATTCGCTTGACGCTGCTG”, the binding signal was -0.786 z-score with GST-Ap-NF-kB RHD; -0.206 z-score in test [1]; -0.305 z-score in the test with GST-Co-NF-kB; -0.518 z-score with GST-Dm-Relish; -0.561 z-score in the test with GST-Aq-NF-kB.
With “CCGATTAACATCACCCACAGCCGTGATGTTAATCGGGTCTTGATTCGCTTGACGCTGCTG”, the binding signal with GST-Ap-NF-kB RHD was 0.31 z-score; in test [1], -0.13 z-score; with GST-Co-NF-kB, 0.925 z-score; with GST-Dm-Relish it was 0.997 z-score; with GST-Aq-NF-kB, 0.397 z-score.
Turning to “CCGATTAACATCAGGATAGATGGTGATGTTAATCGGGTCTTGATTCGCTTGACGCTGCTG”, the binding signal with GST-Ap-NF-kB RHD was 0.0685 z-score; in test [1], -0.0173 z-score; with GST-Co-NF-kB it was 0.954 z-score; in the test with GST-Dm-Relish, -0.0705 z-score; in the test with GST-Aq-NF-kB, -0.294 z-score.
With “CCGATTAACATCAAGGAAATGCCTGATGTTAATCGGGTCTTGATTCGCTTGACGCTGCTG”, the binding signal in the test with GST-Ap-NF-kB RHD is -0.31 z-score; in test [1] it was -0.52 z-score; in the test with GST-Co-NF-kB, 0.182 z-score; with GST-Dm-Relish, -0.483 z-score; in the test with GST-Aq-NF-kB, 0.947 z-score.
In the case of “CCGATTAACATCACGCTCAGTCCTGATGTTAATCGGGTCTTGATTCGCTTGACGCTGCTG”, the binding signal with GST-Ap-NF-kB RHD is 0.104 z-score; in test [1], -0.572 z-score; with GST-Co-NF-kB, -0.93 z-score; with GST-Dm-Relish it was -0.247 z-score; with GST-Aq-NF-kB, -0.247 z-score.
For the sequence “CCGATTAACATCAATGAATTCGATGATGTTAATCGGGTCTTGATTCGCTTGACGCTGCTG”, the binding signal with GST-Ap-NF-kB RHD is -0.59 z-score; in test [1], -0.909 z-score; with GST-Co-NF-kB, -0.404 z-score; with GST-Dm-Relish it was -0.292 z-score; with GST-Aq-NF-kB, -0.476 z-score.
For “CCGATTAACATCACCGCAGGCATTGATGTTAATCGGGTCTTGATTCGCTTGACGCTGCTG”, in that order: -0.273 z-score, -0.247 z-score, -0.616 z-score, 0.224 z-score and -0.128 z-score.
With “CCGATTAACATCATATCCTTTTGTGATGTTAATCGGGTCTTGATTCGCTTGACGCTGCTG”, the binding signal in the test with GST-Ap-NF-kB RHD was -0.237 z-score; in test [1] it was 0.197 z-score; with GST-Co-NF-kB, 0.835 z-score; in the test with GST-Dm-Relish it was 0.276 z-score; with GST-Aq-NF-kB, -0.172 z-score.
For “CCGATTAACATCAAACATGGGCTTGATGTTAATCGGGTCTTGATTCGCTTGACGCTGCTG”, the binding signal was -0.677 z-score in the test with GST-Ap-NF-kB RHD; 0.106 z-score in test [1]; -0.274 z-score with GST-Co-NF-kB; -0.198 z-score with GST-Dm-Relish; -0.392 z-score with GST-Aq-NF-kB.
